Measured values as given in PubChem BioAssay AID1671188 (National Center for Advancing Translational Sciences (NCATS), 2021).
Hit rate of the full screen: of about 100,000 compounds, about 250 (0.25%) were called active. This list was built around the results that the source calls inconclusive (neither active nor inactive); the mix of calls is not that of the screen. Calls come from the whole dose curve; as a rule, active = well fitted inhibition curve with a large enough effect; inconclusive = small, poorly fitted or top-dose-only effect; inactive = flat fitted curve, though single readings scatter. Potencies of inconclusive entries are left out as doubtful fits.

Target: Alanine aminotransferase 2 (Homo sapiens) (UniProt Q8TD30)
Chain of UniProt Q8TD30 (Q8TD30 whole entry, looked up): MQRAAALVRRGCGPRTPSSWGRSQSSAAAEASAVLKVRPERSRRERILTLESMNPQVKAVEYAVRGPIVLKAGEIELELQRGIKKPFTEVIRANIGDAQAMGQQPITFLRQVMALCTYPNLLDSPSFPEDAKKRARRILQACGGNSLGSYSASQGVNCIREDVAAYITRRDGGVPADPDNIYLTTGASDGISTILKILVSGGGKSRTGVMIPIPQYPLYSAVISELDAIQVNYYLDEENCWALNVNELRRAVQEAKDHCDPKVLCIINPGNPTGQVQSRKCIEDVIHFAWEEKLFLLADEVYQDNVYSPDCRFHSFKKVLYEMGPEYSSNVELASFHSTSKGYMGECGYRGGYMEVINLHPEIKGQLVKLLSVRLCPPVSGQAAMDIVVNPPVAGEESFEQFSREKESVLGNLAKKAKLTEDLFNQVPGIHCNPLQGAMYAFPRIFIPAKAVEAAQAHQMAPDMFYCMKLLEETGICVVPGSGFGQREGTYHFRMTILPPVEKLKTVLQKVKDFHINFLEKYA
Assay: Primary qHTS assay for inhibitors of Glutamate pyruvate transaminase 2 (GPT2); note: nearly all actives have a fitted effect of over 60% in size
Conditions: Recombinant GPT2, coupled pyruvate oxidase/HRP Amplex Red fluorescence; series mostly up to 57.7 µM
Summary of the method: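 Recombinant GPT2 (10ng/uL) with 250uM a-KG and 2mM L-alanine, 30 min at room temperature, in HEPES pH 7.5 buffer. Pyruvate detected by pyruvate oxidase/HRP/Amplex Red fluorescence after 30 min in the dark; AOA (50uM) as positive control.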
Potency is the fitted concentration of half-maximal effect; tags give direction and shape of the fitted curve.

| SMILES | Potency |
| --- | --- |
| O=C(NCC1CC1)c1ccc2nnc(-c3ccc(C(F)(F)F)cc3)n2c1 | inconclusive [inhibitor, partial curve, poor fit] |
| CCCc1cc(C)[nH]c(=O)c1CNC(=O)c1cc(-c2ccnc(N3CCN(C)CC3)c2)cc2c1cnn2C(C)C | inconclusive [inhibitor, partial curve, poor fit] |
| COCCNc1ncccc1-c1noc([C@@H]2CCCN2Cc2ccccn2)n1 | inactive |
| COc1ccccc1CNC(=O)C[C@@H]1[C@H](O)CCC2[C@](C)(CO)[C@H](OC(=O)NC3CCCCC3)CC[C@]21C (some centres undefined) | inactive |
| CC(C)(C)CN1CCOC[C@H]1c1ncc(-c2ccc(F)cc2F)[nH]1 | inactive |
| C[C@@H]1C[C@@H](O)[C@@]23CO[C@@H](O)[C@@H]2CCC[C@@H]3[C@@]12C[C@@H](c1ccoc1)OC2=O | inconclusive [inhibitor, single point] |
| O=S(=O)(c1cccnc1)N1CCCC2(C1)Nc1cccnc1NC2=NCc1ccccc1 (centres undefined) | inconclusive [inhibitor, partial curve] |
| COc1ccc(Nc2ncncc2-c2nc(-c3ccccc3)no2)cc1OC | inactive |
| N[C@H](C(=O)N1CCC2(CC1)C(=O)NCN2C(=O)Cc1c[nH]c2ccccc12)c1ccccc1 | inconclusive [inhibitor, partial curve, poor fit] |
| O=C(NCc1ccccc1)c1ccccc1OC1CN(Cc2cccc(F)c2)C1 | inactive |
| O=[S+]1([O-])NC2(CCCN(Cc3ccsc3)C2)CNc2ccccc21 (centres undefined) | inconclusive [inhibitor, partial curve, poor fit] |
| Cn1cc(C(NS(=O)(=O)c2cccc3c2OCCO3)C2CC(O)C2)cn1 (centres undefined) | inconclusive [inhibitor, single point] |
| O=C(COc1ccccc1)NC1CCN(c2ccccc2)C1=O (centres undefined) | inconclusive [inhibitor, single point] |
| Cc1nn2c(c1-c1ccccc1Oc1ccccc1)N(CC1CC1)CCC2 | inactive |
| Cc1nc(N2CCC(NCCCc3ccncc3)CC2)c2ccsc2n1 | inactive |
| CN1CCC(N2CCC(N3C(=O)C4(CCCCC4)C3c3ccncc3)CC2)CC1 (centres undefined) | inactive |
| Cc1csc(NC(=O)C2(C)COCc3cnc(Nc4ccccc4)nc32)n1 (centres undefined) | inactive |
| O=C(c1ccco1)N1CCN(C(=O)C2CCc3ncc(-c4ccsc4)n3C2)CC1 (centres undefined) | inconclusive [inhibitor, full curve, poor fit] |
| Cc1ccc(CC(=O)NC2CCN(c3cc(-c4cccs4)[nH]n3)C2)cc1 (centres undefined) | inconclusive [inhibitor, single point] |
